The whole screen tested about 130,000 compounds, of which about 1,200 (0.92%) were called active. Inconclusive means that the source gave no clear call. Such entries were picked first, then a sample of the others. Calls come from the whole dose curve; as a rule, active = well fitted cell-killing curve with a large enough effect; inconclusive = small, poorly fitted or top-dose-only effect; inactive = no such curve, though single readings can be large or run the other way. Potencies beside an inconclusive call are fits to weak or partial responses and may not hold up.
assay: qHTS Screen for Compounds that Selectively Target Cancer Cells with p53 Mutations: Cytotoxicity of p53ts Cells at the Permissive Temperature; details: H1299-p53A138V at 32C, ATP luminescence viability, 24 h; activity change, negative = cytotoxicity: at 46.1 µM (top of the series); note: nearly all actives have a fitted effect of over 55% in size;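 for activity change, negative = cytotoxicity: 0% = DMSO and -100% = full killing by reference compound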
Description: NIH Chemical Genomics Center [NCGC] NIH Molecular Libraries Screening Centers Network [MLSCN] MLSCN Grant: 1 X01 MH079844-01 Assay Submitter (PI): Dr. SUN, YI, University of Michigan NCGC Assay Overview: Synthetic Lethal Screen for Compounds to Kill Cancer Cells with p53 Mutation. Tumor suppressor gene p53 serves as a major cellular barrier against tumorigenesis. […] The goal of this screening is to identify small molecule probes that selectively kill cancer cells with mutations in p53. This screening was carried out using two lines of H1299 lung cancer cells. The H1299-p53 A138V line express a temperature sensitive p53 mutant (p53ts) in which the mutant p53 protein (A138V) is in the mutant confirmation when grown at 39C (the nonpermissive temperature) and in the wild type conformation when grown at 32C (the permissive temperature). A H1299-neo line (p53 null) grown at both 39C and 32C were used as counter-screens to filter out false positive associated with temperature shifting. The small molecular compounds that selectively target mutant p53-containing cancer cells were selected as candidate probes for further study. A cytotoxicity assay based on the measurement of ATP contents in cells was used in this screen. Concentration-responses of all the compounds in the library collection were determined in qHTS using the cell lines and temperature conditions as above.
NCGC Assay Protocol Summary: Both the H1299-p53A138V and H1299-neo cell lines were provided by Dr.Yi Sun, a PI at the University Michigan. The cells were maintained and cultured at 37C. The resuspended frozen cells were used to plate the cells in the 1536-well assay plates at a density of 600 cells per well in 5 ul medium. The assay plates with the cells were incubated at 37C for 16 to 30 hours before the experiments. The library compounds in DMSO solution were added to the cells in assay plates and incubated 24 hours at 39C (for mutant p53 conformation) or 32C (for normal p53 conformation as control). An ATP_lite assay kit (PerkinElmer) was used to determine the cell viability. Tomaxifen (100uM) was used as the positive control for cell killing. Data were normalized to the controls for basal activity (DMSO only) and 100% killing (100uM tamoxifen). AC50 values were determined from concentration-response data modeled with the standard Hill equation. P53 assay protocol: 1. Reagent; 5 uL H1299-p53A138V or H1299-neo cell cells/well 2. Time; overnight; 37C incubation 3. Compounds; 23 nL; 5.9 nM to 46 uM 4. Controls; 23 nL; Tamoxifen 100 uM 5. Time; 24 hr; 37C incubation 6. Reagent; 3 uL; ATP_Lite reagent 7. Time; 20 min; Room Temperature 8. Detection; Luminescence; Viewlux plate reader Keywords: p53, synthetic lethal, cancer, cell viability, cytotoxicity, H1299 cell line, luminescence, MLSMR, MLSCN, NIH Roadmap, qHTS, NCGC
Potency is the fitted concentration of half-maximal effect; tags give direction and shape of the fitted curve.

SMILES	activity change, negative = cytotoxicity	Potency
COc1ccccc1NC(=O)c1ccc(N)cc1	inactive: -14.4%	–
CCOc1ccc(NC(=O)c2ccccc2O)cc1	–	active: 7.94 µM
Cc1nn(CC(=O)Nc2ccc3c(c2)oc2ccccc23)c(=O)c2ccccc12	inactive: -19.1%	–
COc1ccccc1-c1nc(N(C)C)c2ccccc2n1	inactive: -19.1%	–
CCN1CCN(C(=O)c2cc3c(=O)n4ccccc4nc3n2Cc2ccccc2)CC1	–	active: 12.6 µM
COc1cccc(Cn2c(=O)c(-c3ccc(Cl)cc3)nc3cnc(N4CCNCC4)nc32)c1	–	active: 12.6 µM
Clc1ccc(-n2nnnc2Sc2ncnc3sccc23)cc1	–	inconclusive: 15.8 µM [cytotoxic, single point]
CCC(C)NC(=O)c1nn(-c2ccc(C)cc2)c(=O)n(C)c1=O (stereo not drawn)	inactive: -0.684%	–
COc1cc(C2c3c(-c4cc(C)ccc4O)n[nH]c3C(=O)N2CCCO)ccc1OCCC(C)C (stereo not drawn)	–	inconclusive: 35.5 µM [cytotoxic, single point]
CC(=O)Oc1ccc2c(c1)CCC1C2CC[C@]2(C)C(OC(C)=O)CCC12 (stereo partly drawn)	–	inconclusive: 31.6 µM [cytotoxic, single point]
Cc1ccc(Cn2c(=N)n(CC(=O)c3ccc([N+](=O)[O-])cc3)c3ccccc32)cc1	–	inconclusive: 0.0158 µM [cytotoxic, full curve, poor fit]
COc1ccc(CNc2oc(-c3ccc(COc4ccccc4C)o3)nc2C#N)cc1	–	inconclusive: 8.91 µM [cytotoxic, partial curve, poor fit]
CCOC(=O)CNC(=O)c1ccc2c(c1)OCCO2	–	inconclusive: 10 µM [cytotoxic, partial curve]
COc1cccc(C(=O)Nc2cccc(-c3cn4c(C)csc4n3)c2)c1OC	–	inconclusive: 20 µM [cytotoxic, single point]
Cc1ccccc1NC(=O)c1ccccc1	inactive: -3.24%	–
O=C(NCCc1ccccc1Cl)c1ccc2c(c1)nc1n2CCCCC1	–	active: 3.98 µM
COC(=O)c1ccc(C2C(C(=O)Nc3ccccc3)=C(C)Nc3nc4ccccc4n32)cc1 (stereo not drawn)	–	inconclusive: 20 µM [cytotoxic, single point]
O=C(COc1ccccc1O)Nc1ccc(Cl)cc1	inactive: -4.96%	–
COc1cccc(C(=O)Nc2ccc(NC(=O)C(C)(C)C)cn2)c1	–	active: 3.98 µM

SMILES	activity change, negative = cytotoxicity	Potency
O=C(Cn1nnc(-c2ccccc2Cl)n1)Nc1ccc(Br)cc1	–	inconclusive: 31.6 µM [cytotoxic, single point]
N#CC1=C2C=Cc3ccccc3N2CCCC1=O	–	inconclusive: 20 µM [cytotoxic, single point]
Cc1c2ccccc2c(CSC(=N)N)c2ccccc12	–	inconclusive: 25.1 µM [cytotoxic, single point]
Cc1ccc(NC(=O)c2sc3nc4c(cc3c2N)CN(Cc2ccccc2)CC4)cc1	–	inconclusive: 31.6 µM [cytotoxic, single point]
O=S1(=O)CCN2C(=N1)Sc1c2ccc2c1CCCC2	inactive: -20.2%	–
COc1ccc2c(c1)c1c(c(=O)n(CCc3ccccc3)c(=O)n1Cc1ccc(F)cc1)n2C	inactive: 4.07%	–
CCC(=O)Nc1cccc(C(=O)OCc2cc(=O)n3nc(CC)sc3n2)c1	–	inconclusive: 20 µM [cytotoxic, single point]
Cc1ccc2sc(NC(=O)c3ccc4c(c3)OCCO4)nc2c1C	–	inconclusive: 15.8 µM [cytotoxic, partial curve]
COc1ccc(-c2noc(-c3ccccc3C(=O)NCc3ccco3)n2)cc1	–	inconclusive: 12.6 µM [cytotoxic, partial curve]
COc1ccc(NC(=O)c2ccc3c(c2)OCO3)cc1Cl	–	active: 5.01 µM
O=C(CC(Nc1ccc(Cl)cc1)C(=O)O)c1ccccc1 (stereo not drawn)	–	active: 25.1 µM
c1ccc(-c2noc(-c3cccc4ccccc34)n2)cc1	inactive: -25.2%	–
CCC(C)c1ccc(NC(=O)c2cccnc2)cc1 (stereo not drawn)	–	inconclusive: 12.6 µM [cytotoxic, partial curve]
CCc1ccccc1NC(=O)c1cnc(N2CCCCC2)c2ccccc12	inactive: -0.102%	–
O=C(Nc1ccc2c(c1)CCCN2C(=O)c1cccs1)c1ccccc1Cl	–	inconclusive: 6.31 µM [cytotoxic, partial curve]
Cc1cccc(CNC(=O)CS(=O)(=O)c2cccc3nsnc23)c1	inactive: 3.7%	–
CC(/C=N/n1c(-c2ccco2)n[nH]c1=S)=C\c1ccccc1	–	inconclusive: 0.0224 µM [cytotoxic, full curve, poor fit]
CCc1ccc(CNC(=O)C2CCN(c3nn4cc(-c5ccc(F)cc5)nc4s3)CC2)cc1	inactive: -3.23%	–
COC(=O)c1cc(=O)nc2sc3ccccc3n12	inactive: 0.386%	–
